Data: a compilation of properties of binary mixtures (doi:10.1021/je00013a021)
Some of these densities may be calculated back from excess volumes.

Test: xn = mol fraction of the nth substance listed
Conditions: 100 kPa

[Cl][Al]([Cl])[Cl] + CC[n+]1ccn(C)c1.[Cl-]
mass density [kg/m3]
Conditions | 288.15 K | 298.15 K | 308.15 K | 318.15 K | 328.15 K | 338.15 K | 348.15 K | 358.15 K | 368.15 K | 378.15 K
x1 = 0.5 | 1304.7 | 1296.7 | 1288.7 | 1280.7 | 1272.8 | 1264.8 | 1256.8 | 1248.8 | 1240.8 | 1232.8
x1 = 0.55 | 1329.1 | 1320.3 | 1312.9 | 1303.9 | 1296.2 | 1287.3 | 1278.7 | – | 1262.4 | 1254
x1 = 0.6 | 1358 | – | 1340.7 | 1331.6 | – | 1314.5 | 1305.1 | 1296.9 | 1287.9 | –
x1 = 0.6667 | 1401 | 1390.6 | 1381.9 | 1372.2 | 1362.7 | 1353.6 | 1343.5 | 1333.7 | 1324.3 | 1314.9
